Laboratory results as given in PubChem BioAssay AID485360 (National Center for Advancing Translational Sciences (NCATS), 2010).
Screen size: about 230,000 compounds; about 1,500 (0.65%) were called active. The inconclusive results got no clear call from the source; some entries with a clear call stand among them for comparison. The call rests on the fitted dose curve; in most records, active means well fitted inhibition curve with a large enough effect; inconclusive means small, poorly fitted or top-dose-only effect; inactive means no such curve, though single readings can be large or run the other way. Potencies beside an inconclusive call are fits to weak or partial responses and may not hold up.

molecular target: Lethal(3)malignant brain tumor-like protein 1 (Homo sapiens) (UniProt Q9Y468); test: qHTS Assay for the Inhibitors of L3MBTL1; conditions: AlphaScreen L3MBTL1–H3K9me1 peptide binding; activity, negative = inhibition: at 57.1 µM (top of the series); further: nearly all actives have a fitted effect of over 60% in size
UniProt Q9Y468, sequence (Q9Y468 whole entry, looked up): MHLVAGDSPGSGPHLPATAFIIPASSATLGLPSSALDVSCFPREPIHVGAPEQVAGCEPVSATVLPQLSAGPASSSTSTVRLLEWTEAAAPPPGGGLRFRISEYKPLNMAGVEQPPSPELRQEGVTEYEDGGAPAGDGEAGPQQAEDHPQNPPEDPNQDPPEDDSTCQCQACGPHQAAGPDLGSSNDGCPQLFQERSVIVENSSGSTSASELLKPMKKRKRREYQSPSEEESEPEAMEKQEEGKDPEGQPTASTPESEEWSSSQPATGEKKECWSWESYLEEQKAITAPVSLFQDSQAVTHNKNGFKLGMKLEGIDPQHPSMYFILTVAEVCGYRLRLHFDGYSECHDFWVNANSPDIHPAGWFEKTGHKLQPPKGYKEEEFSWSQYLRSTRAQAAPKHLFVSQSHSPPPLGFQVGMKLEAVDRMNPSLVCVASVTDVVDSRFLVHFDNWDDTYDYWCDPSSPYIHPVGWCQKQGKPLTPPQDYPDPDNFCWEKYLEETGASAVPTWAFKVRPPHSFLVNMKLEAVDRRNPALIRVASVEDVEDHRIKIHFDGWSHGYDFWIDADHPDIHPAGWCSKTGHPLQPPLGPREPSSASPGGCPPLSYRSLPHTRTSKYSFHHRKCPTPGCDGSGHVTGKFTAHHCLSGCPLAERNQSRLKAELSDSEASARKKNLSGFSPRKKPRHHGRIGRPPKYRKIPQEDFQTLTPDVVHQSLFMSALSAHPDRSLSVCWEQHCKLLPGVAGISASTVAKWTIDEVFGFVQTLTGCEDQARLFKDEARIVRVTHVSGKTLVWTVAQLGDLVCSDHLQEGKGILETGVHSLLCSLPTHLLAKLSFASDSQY
Summary of the method: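 AlphaScreen proximity signal between nickel-chelate acceptor and streptavidin donor beads (final 10 ug/mL) reports binding of 50 nM L3MBTL1 to 75 nM biotin-H3 K9me1 peptide; complex incubated with compounds 30 min at room temperature; cefsulodin titration as control.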
On the % scale 0 is the no-effect control and ±100 the full control effect; potency means the concentration at half of the fitted maximal effect; tags describe the fitted curve by direction and shape.

**Q.** `CCOc1cccc(/C=N/NC(=S)Nc2ccccc2[N+](=O)[O-])c1O` was tested. Which Potency did it give?
**A.** inconclusive: 14.1 µM [inhibitor, partial curve]

**Q.** `CC1CCN(CCOc2ccc(Cl)c(Cl)c2)CC1` was tested. Which Potency did it give?
**A.** inactive

**Q.** Which Potency does the source give for `N/C(=N\NC(=O)Nc1ccc(Cl)cc1)c1ccccn1` here?
**A.** inconclusive: 39.8 µM [inhibitor, single point]

**Q.** `O=C(NCc1ccccc1)N1CCN(c2ccc(F)cc2)CC1` was tested. Which Potency did it give?
**A.** inactive

**Q.** Which Potency does the source give for `O=C(NN(c1ccccc1)c1ccccc1)c1ccc([N+](=O)[O-])o1` here?
**A.** inconclusive: 7.08 µM [inhibitor, full curve]

**Q.** With `O=S(=O)(c1ccc(Br)cc1)c1nc(-c2ccco2)oc1NCCCn1ccnc1` as the compound, how does the Potency read?
**A.** inconclusive: 28.2 µM [inhibitor, partial curve]

**Q.** `CCCOc1ccc(Cl)cc1CNc1ccccc1` was tested. Which Potency did it give?
**A.** inactive

**Q.** With `Cc1ccccc1NC(=O)CN1C(=O)S/C(=C\c2cccn2-c2cccc(C(=O)O)c2)C1=O` as the compound, how does the Potency read?
**A.** inconclusive: 31.6 µM [inhibitor, single point]

**Q.** For `C#CCOCCOCCOCCNc1nc(N2CCN(C(=O)[C@H](CCCN=C(N)N)n3cc(C(N)[C@@H](C)CC)nn3)CC2)nc(N2CCN(C(=O)[C@H](CC(N)=O)n3cc([C@@H](N)CC(N)=O)nn3)CC2)n1` (stereo partly drawn), which Potency is on record?
**A.** inactive

**Q.** `COc1cccc(NC(=O)COC(=O)c2ccccc2C(=O)N2CCN(c3ccccc3)CC2)c1` was tested. Which Potency did it give?
**A.** inconclusive: 39.8 µM [inhibitor, single point]

**Q.** With `CCN(CC)S(=O)(=O)c1cccc(-c2n[nH]c(=S)n2/N=C/c2ccc(OC(F)F)cc2)c1` as the compound, how does the Potency read?
**A.** inactive

**Q.** For `Cc1ccnc(NC2CCCCC2)c1`, which Potency is on record?
**A.** inconclusive: 0.891 µM [inhibitor, full curve, poor fit]

**Q.** Which Potency does the source give for `CC(C)c1ccccc1OCCCN1CCCC1` here?
**A.** inconclusive: 28.2 µM [inhibitor, single point]

**Q.** Which Potency does the source give for `CC1CN(S(=O)(=O)c2ccc(C(=O)Nc3sc4c(c3C(N)=O)CCN(C)C4)cc2)CC(C)O1` (stereo not drawn) here?
**A.** inconclusive: 2.82 µM [inhibitor, full curve, poor fit]

**Q.** With `O=C(/C=C/c1ccco1)Oc1cccc2cccnc12` as the compound, how does the Potency read?
**A.** inactive

**Q.** With `O=C(NCCc1c[nH]c2ccccc12)/C(=C\c1cccnc1)NC(=O)c1ccco1` as the compound, how does the Potency read?
**A.** inconclusive: 6.31 µM [inhibitor, single point]

**Q.** How did the Potency turn out when `CC1CC(C)CN(c2oc(Cc3ccccc3)nc2C#N)C1` (stereo not drawn) was run?
**A.** inconclusive: 12.6 µM [inhibitor, partial curve]

**Q.** How did the Potency turn out when `Cc1nn(C)c(=O)n1-c1ccc(OCc2ccccc2)cc1` was run?
**A.** inconclusive: 5.01 µM [inhibitor, single point]

**Q.** `C/C=C/COC(=O)c1[nH]c2c(c1C)C(=O)CC(c1ccc(N(C)C)cc1)C2` (stereo not drawn) was tested. Which Potency did it give?
**A.** inactive

**Q.** With `COCCn1c(-c2ccc(OC)cc2)cnc1SCC(=O)Nc1cccc2ccccc12` as the compound, how does the Potency read?
**A.** inconclusive: 39.8 µM [inhibitor, single point]

**Q.** Which Potency does the source give for `O=C(Nc1cccc(-c2nc3ncccc3o2)c1)c1cc2ccccc2o1` here?
**A.** inconclusive: 6.31 µM [inhibitor, single point]

**Q.** How did the Potency turn out when `COC(=O)Nc1ccc(S(=O)(=O)N(CCO)CC(F)(F)C(F)F)cc1` was run?
**A.** inconclusive: 39.8 µM [inhibitor, single point]

**Q.** For `CCOc1ccc(CC(=N)C2=C(O)CC(C)(C)CC2=O)cc1OCC`, which Potency is on record?
**A.** inactive

**Q.** Which Potency does the source give for `NC(=O)C1CCN(c2nc(-c3ccc(F)cc3)cs2)CC1` here?
**A.** inconclusive: 35.5 µM [inhibitor, single point]

**Q.** For `COc1ccccc1OCCNc1cc(N2CCCCC2)ccc1[N+](=O)[O-]`, which Potency is on record?
**A.** inconclusive: 10 µM [inhibitor, partial curve, poor fit]

**Q.** For `CCn1c(SCC(=O)c2ccc(O)c(O)c2)nnc1-c1ccc(C)cc1`, which Potency is on record?
**A.** inconclusive: 25.1 µM [inhibitor, partial curve]

**Q.** `O[C@@H](CNC[C@H](O)c1ccccc1)c1ccccc1` was tested. Which Potency did it give?
**A.** inconclusive: 6.31 µM [inhibitor, single point]

**Q.** With `Cc1nc2c(o1)CCc1ccccc1C2N1CCN(C)CC1` (stereo not drawn) as the compound, how does the Potency read?
**A.** inconclusive: 31.6 µM [inhibitor, single point]

**Q.** `O=C(CCc1ccccc1)Nc1nccs1` was tested. Which activity, negative = inhibition did it give?
**A.** inactive: -7.63% [at 2.29 µM]

**Q.** Which Potency does the source give for `Cc1ccc(OC(=O)c2ccc(N3CCOCC3)c([N+](=O)[O-])c2)cc1` here?
**A.** inconclusive: 39.8 µM [inhibitor, single point]

**Q.** `COc1cc(Cl)c(C)cc1NC(=O)CN(C)Cc1cccc(OC)c1OC` was tested. Which Potency did it give?
**A.** inconclusive: 0.708 µM [inhibitor, full curve]

**Q.** `O=C(c1coc(=O)c(Br)c1)N1CCCc2ccccc21` was tested. Which Potency did it give?
**A.** inconclusive: 35.5 µM [inhibitor, single point]

**Q.** Which Potency does the source give for `O=C1CC(Nc2ccc(N3CCOCC3)cc2)C(=O)N1C1CCCCC1` (stereo not drawn) here?
**A.** inconclusive: 12.6 µM [inhibitor, partial curve]

**Q.** How did the Potency turn out when `O=C(NCCS(=O)(=O)NCc1cccnc1)c1ccccc1` was run?
**A.** inactive

**Q.** For `Cc1cc(N/N=C/c2ccc(O)cc2)nc(NS(=O)(=O)c2ccccc2)n1`, which Potency is on record?
**A.** active: 31.6 µM

**Q.** `COCCn1c(N)c(N(Cc2ccccc2)C(=O)c2ccc3ccccc3c2)c(=O)[nH]c1=O` was tested. Which Potency did it give?
**A.** inconclusive: 35.5 µM [inhibitor, partial curve]

**Q.** Which Potency does the source give for `Cc1cccc(C)c1NCc1n[nH]c(=S)n1-c1ccccc1` here?
**A.** inconclusive: 31.6 µM [inhibitor, partial curve]

**Q.** With `COC(=O)c1c(NC(=O)Cc2cccs2)sc2c1CCCC2` as the compound, how does the Potency read?
**A.** inconclusive: 31.6 µM [inhibitor, partial curve]

**Q.** Which Potency does the source give for `CCOC(=O)C1CCCN(Cc2ccccc2OCC)C1` (stereo not drawn) here?
**A.** inactive

**Q.** `COc1cccc(-n2ccnc2SCC(=O)Nc2cc(OC)ccc2OC)c1` was tested. Which Potency did it give?
**A.** inconclusive: 31.6 µM [inhibitor, single point]

**Q.** Which Potency does the source give for `O=C(c1cnn(C(=O)COc2ccccc2F)c1)c1cc(F)ccc1O` here?
**A.** inconclusive: 3.55 µM [inhibitor, partial curve]

**Q.** For `c1ccc(C2=Nc3ccccc3NC(c3ccccc3)C2)cc1` (stereo not drawn), which Potency is on record?
**A.** inactive

**Q.** `Cc1cc(C)cc(Nc2ccc(C(=O)O)cc2N)c1` was tested. Which Potency did it give?
**A.** inconclusive: 11.2 µM [inhibitor, partial curve]

**Q.** For `CCOC(=O)c1cc2c(=O)n3ccccc3nc2n(CCCOC)c1=NC(=O)c1cccnc1`, which Potency is on record?
**A.** inconclusive: 7.08 µM [inhibitor, single point]

**Q.** For `CCN1CCN(S(=O)(=O)c2ccc(C(C)(C)C)cc2)CC1`, which Potency is on record?
**A.** inactive

**Q.** `Cc1nn2c(NCCCn3ccnc3)cc(C(C)C)nc2c1-c1ccccc1` was tested. Which Potency did it give?
**A.** inconclusive: 25.1 µM [inhibitor, single point]

**Q.** How did the Potency turn out when `CCOc1ccc(Nc2nc(Cc3nnc(SCC(=O)O)o3)cs2)cc1` was run?
**A.** inconclusive: 35.5 µM [inhibitor, single point]

**Q.** With `O=C(NCCc1ccco1)c1ccc(OCc2cn3ccccc3n2)cc1` as the compound, how does the Potency read?
**A.** inconclusive: 39.8 µM [inhibitor, single point]

**Q.** For `COC(=O)[C@H](C)NC(=O)NCc1ccccc1`, which Potency is on record?
**A.** inconclusive: 28.2 µM [inhibitor, single point]

**Q.** How did the Potency turn out when `Cc1cc(=O)[nH]c(N/N=C/c2cc(C)n(-c3ccccc3)c2C)n1` was run?
**A.** inconclusive: 6.31 µM [inhibitor, single point]

**Q.** Which Potency does the source give for `O=Cc1cc(N=Nc2cccc(C(=O)O)c2)ccc1O` here?
**A.** inconclusive: 6.31 µM [inhibitor, partial curve]

**Q.** How did the Potency turn out when `NC(=S)NN=Cc1ccc(-c2ccc(S(=O)(=O)Nc3ncccn3)cc2)o1` was run?
**A.** active: 28.2 µM

**Q.** Which Potency does the source give for `CN(C)c1ccc(N=Nc2ccccc2C(=O)OCC(=O)NC2CCCC2)cc1` here?
**A.** inconclusive: 28.2 µM [inhibitor, partial curve]

**Q.** For `NC(=O)c1c(NC(=O)C2c3ccccc3Oc3ccccc32)sc2c1CCCCC2`, which Potency is on record?
**A.** inconclusive: 28.2 µM [inhibitor, single point]

**Q.** For `CCN(c1ccccc1)S(=O)(=O)c1ccc(OC)c(NC(=O)CNCCc2ccccc2)c1`, which Potency is on record?
**A.** inactive

**Q.** `O=C(NCc1ccccc1)c1nc[nH]c1C(=O)NCc1ccccc1` was tested. Which Potency did it give?
**A.** inactive

**Q.** With `COc1cc([N+](=O)[O-])cc(/C=N/NC(=O)Cn2cncn2)c1O` as the compound, how does the Potency read?
**A.** inconclusive: 17.8 µM [inhibitor, single point]

**Q.** How did the Potency turn out when `Cc1ccc(N2CC(C(=O)Nc3cccc(C(=O)NC4CC4)c3)CC2=O)cc1` (stereo not drawn) was run?
**A.** inconclusive: 28.2 µM [inhibitor, single point]

**Q.** With `CCOC(=O)c1c(C)[nH]c(C(=O)OCC(=O)Nc2sccc2C(N)=O)c1C` as the compound, how does the Potency read?
**A.** inconclusive: 39.8 µM [inhibitor, single point]

**Q.** With `CCCCCC(=O)NC(NC(=S)NC1CCS(=O)(=O)C1)C(Cl)(Cl)Cl` (stereo not drawn) as the compound, how does the Potency read?
**A.** inconclusive: 6.31 µM [inhibitor, single point]

**Q.** `CCN(CC(=O)Nc1ccc(OC)cc1)C(=O)Cc1cccs1` was tested. Which Potency did it give?
**A.** inconclusive: 25.1 µM [inhibitor, single point]

**Q.** How did the Potency turn out when `CC(C)c1ccc(/C=C/c2[nH]c(=O)[nH]c(=O)c2[N+](=O)[O-])cc1` was run?
**A.** inactive

**Q.** How did the Potency turn out when `COC(=O)c1ccccc1NC(=O)CSc1nc(N)cc(=O)[nH]1` was run?
**A.** active: 25.1 µM

**Q.** Which Potency does the source give for `COc1cc(S(=O)(=O)N2CCN(C)CC2)ccc1Cl` here?
**A.** inconclusive: 12.6 µM [inhibitor, partial curve, poor fit]

**Q.** `c1ccc(-n2c(SCc3ccncc3)nnc2-c2ccco2)cc1` was tested. Which Potency did it give?
**A.** inactive

**Q.** For `Cc1cc(C(=O)COC(=O)CC(NC(N)=O)c2ccc(Cl)cc2)c(C)n1C` (stereo not drawn), which Potency is on record?
**A.** inconclusive: 39.8 µM [inhibitor, single point]

**Q.** For `Cc1cc(=O)n(CCCc2ccccc2)[nH]1`, which Potency is on record?
**A.** inconclusive: 31.6 µM [inhibitor, partial curve]

**Q.** How did the Potency turn out when `Cc1sc2nc(CN3CCCCC3)nc(N3CCN(C(=O)c4ccco4)CC3)c2c1C` was run?
**A.** inconclusive: 11.2 µM [inhibitor, partial curve, poor fit]
